# Data from PubChem BioAssay (NCATS).
# Where “and” joins values, the source holds several entries; their conditions need not be identical. Identical values can stand only once. The inconclusive results got no clear call from the source; some entries with a clear call stand among them for comparison. For some of these results: A potency beside an inconclusive call is a rough fit, not a confirmed value. Calls of active or inactive are those of the source. Unless noted, calls follow the shape of the dose curve; as a rule, active = well fitted curve in the direction sought with a large enough effect; inconclusive = small, poorly fitted or top-dose-only effect, or another doubt; inactive = no such curve, though single readings can be large; an effect the other way counts as inactive or inconclusive.
# Legend:
# [1] = qHTS to identify inhibitors of the type 1 interferon - major histocompatibility complex class I in skeletal muscle: primary screen against the NCATS Mechanism Interrogation Plate v5.0 (MIPE) Libary (AID 1347411); conditions: iHSKM cells + IFN-b, HiBiT-tagged MHC-I luminescence, 24 h; activity change, negative = inhibition: at 45.8 µM (top of the series); also: nearly all actives have a fitted effect of over 65% in size; also: potency is read from the fitted curve at half-maximal effect;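 as to activity change, negative = inhibition: plate controls were vehicle for no effect and reference inhibitor for full effect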
# Outline: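 HLA-B HiBit myoblasts, dexamethasone-free medium + 4 ng/ml IFN-b, 24 h compound, 11-pt 1:3 from 46 uM final. Readout: Nano-Glo HiBiT lytic luminescence after 10 min lysis, RT.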
# [2] = biological target: Glutathione peroxidase 1 (Homo sapiens) (UniProt P07203); assay: Primary qHTS Assay for Inhibitors of Recombinant Selenoprotein Glutathione Peroxidase 1 (GPX1) (AID 1845191); also: potency is read from the fitted curve at half-maximal effect; nearly all actives have a fitted effect of over 65% in size
# Outline: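 GPX1 10 nM, GR 100 nM, GSH 1 mM, NADPH 0.5 mM, CHP 0.5 mM (final). 30-min cpd preincubation, RT. Ex340/Em450 read t=0, t=15 min.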
# [3] = qHTS for Inhibitors of Ubiquitin-specific Protease USP2a Using CHOP2 as the Reporter: K633 Counterscreen (AID 652168); also: % of control where 0% means no effect
# Outline: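 Detection-system control: fluorescence of K48-linked DiUb-4IQF substrate (100 nM as added) tracked over time, Ex 525/Em 598, with pinned compounds and no enzyme, in pH 8 Tris buffer containing beta-mercaptoethanol and 0.05% Chaps.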
# [4] = qHTS for Inhibitors of Ubiquitin-specific Protease USP2a Using CHOP2 as the Reporter: Cytotox Assay (AID 652170); also: potency is read from the fitted curve at half-maximal effect; nearly all actives have a fitted effect of over 70% in size
# Outline: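 Cytotoxicity read as ATP luminescence (CellTiter-Glo) after 72 hr compound treatment at 37 deg C. Cells: HCT116, 600/well in DMEM plus 10% FBS. Normalization between DMSO-treated cells and cell-free wells.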
# [5] = Primary qHTS for inhibitors of nuclear receptor binding SET domain protein 2 (NSD2) in an RCH-ACV wild type WT cells (2C) (AID 1645877); also: nearly all actives have a fitted effect of over 70% in size; also: potency is read from the fitted curve at half-maximal effect
# [6] = biological target: Phospholipid hydroperoxide glutathione peroxidase GPX4 (Homo sapiens) (UniProt P36969); assay: Primary qHTS Assay for Inhibitors of Recombinant Selenoprotein Glutathione Peroxidase 4 (GPX4) (AID 1845192); also: potency is read from the fitted curve at half-maximal effect; nearly all actives have a fitted effect of over 65% in size
# Outline: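 qHTS, GR-coupled: GPX4 200 nM + cpd 30 min RT → GSH 1 mM, NADPH 0.5 mM, GR 100 nM → CHP 0.5 mM start; fluor 340/450 at t0 and t15 min; no-enzyme wells as control.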
# [7] = Primary qHTS for inhibitors of nuclear receptor binding SET domain protein 2 (NSD2) in an isogenic RCH-ACV NSD2 p.E1099K mutant (9B) (AID 1645876); also: potency is read from the fitted curve at half-maximal effect; nearly all actives have a fitted effect of over 70% in size
# [8] = NCATS anti-infectives library activity on the primary C. elegans qHTS viability assay (AID 1745855; calls by dose curve; also: potency is read from the fitted curve at half-maximal effect)
# Outline: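 Titration-based screen in worms: eggs hatched overnight in M9, L1 larvae fed TOP10 capsules in S medium with compound, incubated 21 °C for 7 days; fluorescent objects gated by size and intensity at days 0, 3 and 7.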
# [9] = qHTS assay to identify inhibitors of the type 1 interferon - major histocompatibility complex class I in skeletal muscle: Counter screen cell viability and HiBit confirmation (AID 1347412); conditions: iHSKM muscle cells + IFN-b, HiBiT or CellTiter-Glo, 24 h; Viability; at 45.9 µM (top of the series); also: % is scaled to controls: 0 for no effect and ±100 for the full control effect; nearly all actives have a fitted effect of over 60% in size
# Outline: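 Human myoblast knock-in line, 4.0 ng/ml IFN-beta stimulation, 24 h compound treatment. Endpoints: HiBiT lytic luminescence (HLA-B level) and CellTiter Glo (ATP). Dosing 12 concentrations, 3-fold steps, 46 uM highest final.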
# Tags tell the direction and shape of the fitted curve.
# Sequence of UniProt P36969 (P36969 whole entry, looked up): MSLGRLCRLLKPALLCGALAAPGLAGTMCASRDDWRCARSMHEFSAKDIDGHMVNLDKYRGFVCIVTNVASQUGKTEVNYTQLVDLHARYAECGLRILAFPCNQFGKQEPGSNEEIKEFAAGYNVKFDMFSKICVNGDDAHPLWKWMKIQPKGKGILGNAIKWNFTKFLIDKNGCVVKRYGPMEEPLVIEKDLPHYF
# Sequence of UniProt P07203 (P07203 whole entry, looked up): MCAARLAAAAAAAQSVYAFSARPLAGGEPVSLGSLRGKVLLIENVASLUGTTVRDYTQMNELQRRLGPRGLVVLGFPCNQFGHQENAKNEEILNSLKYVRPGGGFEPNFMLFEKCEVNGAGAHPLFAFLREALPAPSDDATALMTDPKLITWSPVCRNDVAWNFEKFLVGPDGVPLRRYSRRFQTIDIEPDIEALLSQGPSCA
smiles,measurement,setting,value
CCC(=O)O[C@]1(C(=O)CO)CC[C@H]2[C@@H]3CCC4=CC(=O)CC[C@]4(C)[C@H]3CC[C@@]21C,Potency,[1],inactive
same,Potency,[2],"inconclusive: 29 µM [inhibitor, single point]"
Cc1ccc(S(=O)(=O)Nc2cc(C(F)(F)F)ccc2C(=O)Nc2nc(-c3ccccc3)cs2)cc1,Potency,[3],inactive
same,Potency,[4],active: 2.96 µM
same,Potency,[1],"inconclusive: 10.4 µM [inhibitor, partial curve, poor fit]"
same,Potency,[5],active: 4.17 µM
same,Potency,[6],"inconclusive: 32.1 µM [inhibitor, single point]"
COC(=O)N[C@H](C(=O)N1CCC[C@H]1c1ncc(-c2ccc(-c3ccc(-c4cnc([C@@H]5CCCN5C(=O)[C@@H](NC(=O)OC)C(C)C)[nH]4)cc3)cc2)[nH]1)C(C)C,Potency,[1],"inconclusive: 37 µM [inhibitor, single point]"
same,Potency,[7],"inconclusive: 29.5 µM [inhibitor, single point]"
same,Potency,[2],"inconclusive: 5.15 µM [inhibitor, single point] and active: 16.1 µM"
same,Potency,[6],active: 18 µM and active: 20 µM
[2H]C([2H])([2H])C(O)([C@@H](C)/C=C/[C@@H](C)[C@H]1CC[C@H]2/C(=C/C=C3C[C@@H](O)C[C@H](O)C3)CCC[C@]12C)C([2H])([2H])[2H],"activity change, negative = inhibition",[1],inconclusive: -30.4% [inhibitor]
same,Potency,[5],inactive
Nc1nc(N)c2nc(-c3cccc(Cl)c3)c(N)nc2n1,Potency,[1],inactive
same,Potency,[2],active: 4.09 µM
same,Potency,[6],"inconclusive: 3.6 µM [inhibitor, partial curve, poor fit]"
CCc1ccc2nc(Nc3cc(Cc4ccccc4)nc(NC4CCC(O)CC4)n3)sc2c1 (stereo not drawn),Potency,[1],"inconclusive: 46.6 µM [inhibitor, single point]"
same,Potency,[7],"inconclusive: 26.3 µM [inhibitor, single point]"
same,Potency,[6],"inconclusive: 20.2 µM [inhibitor, single point]"
CC[C@H](NC(=O)[C@H](C)NC)C(=O)N1C[C@@H](O)C[C@H]1Cc1c(-c2[nH]c3cc(F)ccc3c2C[C@@H]2C[C@H](O)CN2C(=O)[C@H](CC)NC(=O)[C@H](C)NC)[nH]c2cc(F)ccc12,Potency,[1],"inconclusive: 14.7 µM [inhibitor, partial curve]"
same,Potency,[2],"inconclusive: 20.5 µM [inhibitor, partial curve]"
same,Potency,[6],"inconclusive: 22.7 µM [inhibitor, partial curve]"
CN[C@H]1CN(c2ccc3c(=O)c(C(=O)O)cn(-c4nccs4)c3n2)C[C@@H]1OC,Potency,[1],"inconclusive: 6.74 µM [inhibitor, partial curve, poor fit]"
same,Potency,[5],active: 0.0762 µM
COc1cc2nccc(Oc3ccc(NC(=O)c4cn(C(C)C)c(=O)n(-c5ccc(F)cc5)c4=O)cc3F)c2cc1OC,Potency,[1],inactive
same,Potency,[5],inactive
C[C@@H]1CC2C3C[C@H](F)C4=CC(=O)C=C[C@]4(C)[C@@]3(F)[C@@H](O)C[C@]2(C)[C@@]1(OC(=O)c1ccco1)C(=O)SCF (stereo partly drawn),"activity change, negative = inhibition",[1],inconclusive: -48% [inhibitor]
same,Potency,[7],"inconclusive: 6.61 µM [inhibitor, partial curve]"
same,Potency,[6],"inconclusive: 10 µM [inhibitor, partial curve]"
O=C(/C=C\n1cnc(-c2cc(C(F)(F)F)cc(C(F)(F)F)c2)n1)NNc1ccccn1,Potency,[1],active: 2.34 µM
same,Potency,[8],"inconclusive: 20.5 µM [inhibitor, single point]"
CC(C)(C)c1[nH]cnc1/C=c1\[nH]c(=O)/c(=C/c2ccccc2)[nH]c1=O,Potency,[1],inactive
same,Potency,[5],active: 0.118 µM
CCS(=O)(=O)N1CCC(C(C)n2c(C)c(C(=O)NCc3c(OC)cc(C)[nH]c3=O)c3ccccc32)CC1 (stereo not drawn),Potency,[1],inactive
same,Potency,[5],"inconclusive: 18.6 µM [inhibitor, partial curve, poor fit]"
C[C@]12CCCN1CC1=NNC(=O)c3cc(F)cc4[nH]c2c1c34,Potency,[1],"inconclusive: 18.6 µM [inhibitor, partial curve]"
same,Potency,[5],active: 3.72 µM
same,Potency,[8],inactive
CC(=O)c1ccc2c(c1)c1cc(C(C)=O)ccc1n2CCNC(C)C,Potency,[5],active: 0.662 µM
same,Potency,[2],"inconclusive: 29 µM [inhibitor, single point]"
same,Potency,[6],active: 16.1 µM
same,"activity change, negative = inhibition",[9],inactive: -5.98%
CC(=O)/C=C1/C(=O)N(C)c2ccccc21,"activity change, negative = inhibition",[9],inactive: -2.06%
